Measurements from PubChem BioAssay AID488969 (Vanderbilt High Throughput Screening Facility, 2010).
In all, about 110,000 compounds were measured (“z-score”: median about -0.1, highest 2% from about 2 on). The list shows a part of the results. Active and inactive are the calls of the source.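 Rule for the calls: active = z-score in the third read window above 3 or below -3; inactive = the rest.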

Molecular target: Metabotropic glutamate receptor 8 (Rattus norvegicus) (UniProt P70579)
Assay: rat mGluR8 modulators via GIRK flux, primary screen, cell-based, thallium flux, HTS (AID 488969)
Conditions: HEK293 rat mGluR8, GIRK (G protein-gated inwardly rectifying potassium channel) thallium flux, FluoZin2; at 10 µM; stronger effect = higher value; submaximal glutamate (EC20) added with thallium

Sequence of UniProt P70579 (P70579 whole entry, looked up): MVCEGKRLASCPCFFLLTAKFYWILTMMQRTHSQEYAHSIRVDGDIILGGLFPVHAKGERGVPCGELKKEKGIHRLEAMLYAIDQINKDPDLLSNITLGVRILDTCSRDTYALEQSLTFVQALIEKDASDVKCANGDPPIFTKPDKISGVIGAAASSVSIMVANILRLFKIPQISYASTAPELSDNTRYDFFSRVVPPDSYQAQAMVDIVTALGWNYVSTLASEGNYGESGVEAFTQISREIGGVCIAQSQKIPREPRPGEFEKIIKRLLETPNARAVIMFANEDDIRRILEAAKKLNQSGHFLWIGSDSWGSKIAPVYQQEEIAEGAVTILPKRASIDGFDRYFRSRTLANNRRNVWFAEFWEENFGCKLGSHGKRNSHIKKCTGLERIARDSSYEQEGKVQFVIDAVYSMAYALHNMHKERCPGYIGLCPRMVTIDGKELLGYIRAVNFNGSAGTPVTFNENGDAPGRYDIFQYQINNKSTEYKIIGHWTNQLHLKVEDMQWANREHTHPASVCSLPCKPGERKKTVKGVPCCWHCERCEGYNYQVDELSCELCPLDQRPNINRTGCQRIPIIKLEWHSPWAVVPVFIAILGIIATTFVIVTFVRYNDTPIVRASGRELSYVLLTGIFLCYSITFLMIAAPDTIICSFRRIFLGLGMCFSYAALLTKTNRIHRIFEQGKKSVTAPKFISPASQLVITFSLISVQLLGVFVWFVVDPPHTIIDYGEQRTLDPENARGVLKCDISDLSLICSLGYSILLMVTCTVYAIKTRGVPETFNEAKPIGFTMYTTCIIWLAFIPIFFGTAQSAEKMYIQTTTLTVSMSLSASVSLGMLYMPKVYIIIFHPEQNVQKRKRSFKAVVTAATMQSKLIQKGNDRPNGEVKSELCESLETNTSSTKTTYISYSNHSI

In order of falling z-score:
1. CC(C)(C)CC(=O)Nc1ccc(C(N)=O)cc1  1.61
2. CC(CS(=O)(=O)c1ccc2ccccc2c1)N1CCN(C2CCCCC2)CC1 (stereo not drawn)  0.912
3. Cc1ccc(Cn2c(=N)n(CC(=O)c3ccc([N+](=O)[O-])cc3)c3ccccc32)cc1  0.888
4. CCSC1=NC(C)(C)C=C(/C=C/c2ccc(Cl)cc2Cl)N1  0.874
5. COc1ccc(C(=O)CSc2ccc(-c3ccco3)nn2)cc1  0.654
6. Cc1c(F)cccc1NS(=O)(=O)c1ccccc1C#N  0.587
7. O=C(Cn1nnc2ccccc21)NCc1ccccc1  0.579
8. COC(=O)c1ccc(CN2CCN(Cc3ccc(C(=O)OC)o3)CC2)o1  0.543
9. Cc1ccc(C)c(N2CN(Cc3ccco3)CNC2=S)c1  0.504
10. O=c1[nH]cnc2scc(-c3ccc(-c4ccccc4)cc3)c12  0.454
11. OCc1nc2ccccc2n1CC(O)COc1ccccc1 (stereo not drawn)  0.379
12. CS(=O)(=O)N(CC(O)Cn1c2ccccc2c2ccccc21)c1cccc2ccccc12 (stereo not drawn)  0.332
13. Fc1ccc(CSc2nnc(Cc3sc(-c4ccccc4)nc3-c3ccccc3)o2)cc1  0.324
14. O=C(c1ccncc1)N1CCN(C(=O)c2ccncc2)CC1  0.319
15. CC1CCC2(CC1)N=C(N)Nc1nc3ccccc3n12 (stereo not drawn)  0.276
16. CSc1nnc2c(n1)OC(c1cn(C)c3ccccc13)N(C(C)=O)c1ccccc1-2 (stereo not drawn)  0.274
17. Cc1ccc(N2C(=O)[C@@H]3C(c4ccc(F)cc4)=NO[C@@H]3C2=O)cc1  0.188
18. O=C(c1ccco1)N1CCN(S(=O)(=O)c2cccc(C(F)(F)F)c2)CC1  0.151
19. CCCCn1c(=O)[nH]c(=O)c2c1nc(-c1ccc(-c3ccccc3Br)o1)n2CCOC  0.145
20. O=C(CN1CCN(c2ccccc2)CC1)Nc1ccccc1Sc1ccccc1  0.145
21. CC1CCCN(C(=S)NCCc2ccccc2)C1 (stereo not drawn)  0.132
22. CC(C)(C)NC(=O)C(c1ccco1)N(C(=O)c1csnn1)c1ccccc1 (stereo not drawn)  0.107
23. Cn1c(=O)n(/N=C/c2ccccc2)c2ccccc21  0.0704
24. CCOC(=O)c1cc(-c2ccccc2)sc1NC(=O)C(C)N1C(=O)c2ccccc2C1=O (stereo not drawn)  0.0576
25. COc1ccc(C(=O)Nc2cccc(N(C)S(C)(=O)=O)c2)cc1OC  0.00947
26. CCOC(=O)C1=C(O)/C(=C\c2ccc(OC)c(OC)c2)N=C1C  0.00382
27. CCOC(=O)c1c(N)sc(C(=O)N2CCCCC2)c1C  0.00178
28. Cc1noc(NC(=O)c2ccc(F)cc2)c1C#N  -0.00458
29. Cc1cc(=O)oc2cc(OCC(=O)NCc3ccncc3)ccc12  -0.0331
30. NC(=O)[C@H](Cc1cc2ccccc2s1)NC(=O)[C@@H]1CC2(CC(c3cccc(NC(=O)[C@@H]4CCC(=O)N4)c3)=NO2)CN1C(=O)c1ccccc1 (stereo partly drawn)  -0.0413
31. CCCNC(=S)Nc1ccc2nc(-c3ccccn3)c(-c3ccccn3)nc2c1  -0.0944
32. Cc1ccc(NC(=O)C[n+]2ccccc2)cc1[N+](=O)[O-]  -0.109
33. Cc1cc(C)c2nc(NC(=O)c3ccc4c(c3)OCO4)sc2c1  -0.113
34. CCN1CCN(C(=O)CS(=O)Cc2nc(-c3ccc(OC)cc3)oc2C)CC1 (stereo not drawn)  -0.122
35. CC(C)(C)c1nn2cnnc2n(/N=C/c2ccc(O)cc2)c1=O  -0.126
36. COc1ccc(S(=O)(=O)NCCC(C)C)cc1C  -0.152
37. COc1ccc(C2C(C(=O)Nc3cccnc3)=C(C)Nc3nc(-c4cccs4)nn32)cc1 (stereo not drawn)  -0.167
38. Cc1csc(NC(=O)CSc2nnc(NC(=O)COc3ccccc3)s2)n1  -0.167
39. COc1cc(C=O)ccc1OCCOCCOc1c(C)cc(Cl)cc1Cl  -0.192
40. Cc1ccc(C(=O)Nc2ccccc2SCC2CSc3nc4ccccc4c(=O)n32)cc1 (stereo not drawn)  -0.196
41. O=[N+]([O-])c1ccc(-c2nc3ccc([N+](=O)[O-])cc3[nH]2)cc1  -0.201
42. c1ccc(N2CCCCC2)c(NC2=NCCC2)c1  -0.219
43. CCOc1cc(/C=N\NC(=O)c2ccc(C)nc2)cc([N+](=O)[O-])c1O  -0.222
44. Cc1cccc(OCC(=O)N/N=C/c2cc([N+](=O)[O-])ccc2N2CCOCC2)c1  -0.223
45. CCC(CC)NC(=O)c1cc2c(C)nn(Cc3ccccc3Cl)c2s1  -0.23
46. C=CCn1c(CNc2ccccc2)nnc1SCC(=O)N/N=C/c1ccccc1O  -0.235
47. COc1ccc(S(=O)(=O)n2ccc(-c3cnc(-c4ccccc4)s3)n2)cc1  -0.248
48. O=C(C[n+]1cc(-c2ccc(F)cc2)n2c1CCC2)N1c2ccccc2Sc2ccccc21  -0.285
49. Cc1ccc(CS(=O)(=O)Cc2ccc(C(=O)NCc3ccccn3)o2)cc1  -0.322
50. CCn1c(=S)ccc2ccc(OC)cc21  -0.373
51. c1ccc(-c2nnc(CSc3nc4ccccc4[nH]3)o2)cc1  -0.393
52. CCCCC(=O)NCCc1ccc(OC)cc1  -0.412
53. N#C/C(=C\c1cn[nH]c1-c1ccc(Cl)cc1)C(=O)NC1CC1  -0.545
54. Cc1ccccc1N1C(S)=C(C#N)C(=O)NC1c1cccs1 (stereo not drawn)  -0.56
55. CCc1c(C)nc(N)n2c(SCC(=O)Nc3ccccc3)nnc12  -0.634
56. COc1ccc(OC)c(NC(=O)c2c(NC(=O)c3ccco3)sc3c2CCC3)c1  -0.643
57. CCn1cc(C2=NOC(C(=O)Nc3cc(OC)c(Cl)cc3OC)C2)c(C)n1 (stereo not drawn)  -0.703
58. CC1CSc2nc3sc4c(c3c(=O)n21)CCCC4 (stereo not drawn)  -0.765
59. O=C(COc1ccccc1)N1CCN(C(=O)Cc2ccccc2)CC1  -0.784
60. COC(=O)CSc1nnc(-c2ccc(OC)cc2OC)o1  -0.797
61. CCOC(=O)CSC1=C(C#N)C(c2ccccc2OCC)C(C(=O)OCC)C(=O)N1 (stereo not drawn)  -0.815
62. Cc1cc(C)cc(NS(=O)(=O)c2ccc3c(c2)c(=O)n(C)c(=O)n3C)c1  -0.825
63. COc1ccc(C(=O)Oc2cc(/C=N/NS(=O)(=O)c3ccc(C)cc3)ccc2OC)cc1  -0.878
64. O=C(Nc1ncc2c(n1)-c1ccccc1CC2)c1cccc(Cl)c1  -0.891
65. CC(C)CCNC(=O)CN(C(=O)CCC(=O)Nc1ccccn1)c1ccc2c(c1)OCO2  -1.06
66. Cc1ccccc1N1CCN(CCN2C(=O)CC(=C3c4ccccc4-c4ccccc43)C2=O)CC1  -1.07
67. CSCC[C@H](NC(=O)OC(C)(C)C)c1nnc(SCc2cccc(F)c2)o1  -1.29

With `CC(C)c1ccccc1NC(=O)COC(=O)/C=C/c1cccc([N+](=O)[O-])c1` the z-score was active: 5.9.
